We go through 91 compounds from PMC4336329 (PLoS ONE, 2015).

The structures appear in SMILES notation. Among all 310,000 compounds or so, about 2,200 (0.71%) showed an effect of 50% or more. The effect is printed as a negative number. This is one part of the list.

Sequence of human ether-à-go-go-related gene (hERG) potassium channel (Q12809 whole entry, looked up): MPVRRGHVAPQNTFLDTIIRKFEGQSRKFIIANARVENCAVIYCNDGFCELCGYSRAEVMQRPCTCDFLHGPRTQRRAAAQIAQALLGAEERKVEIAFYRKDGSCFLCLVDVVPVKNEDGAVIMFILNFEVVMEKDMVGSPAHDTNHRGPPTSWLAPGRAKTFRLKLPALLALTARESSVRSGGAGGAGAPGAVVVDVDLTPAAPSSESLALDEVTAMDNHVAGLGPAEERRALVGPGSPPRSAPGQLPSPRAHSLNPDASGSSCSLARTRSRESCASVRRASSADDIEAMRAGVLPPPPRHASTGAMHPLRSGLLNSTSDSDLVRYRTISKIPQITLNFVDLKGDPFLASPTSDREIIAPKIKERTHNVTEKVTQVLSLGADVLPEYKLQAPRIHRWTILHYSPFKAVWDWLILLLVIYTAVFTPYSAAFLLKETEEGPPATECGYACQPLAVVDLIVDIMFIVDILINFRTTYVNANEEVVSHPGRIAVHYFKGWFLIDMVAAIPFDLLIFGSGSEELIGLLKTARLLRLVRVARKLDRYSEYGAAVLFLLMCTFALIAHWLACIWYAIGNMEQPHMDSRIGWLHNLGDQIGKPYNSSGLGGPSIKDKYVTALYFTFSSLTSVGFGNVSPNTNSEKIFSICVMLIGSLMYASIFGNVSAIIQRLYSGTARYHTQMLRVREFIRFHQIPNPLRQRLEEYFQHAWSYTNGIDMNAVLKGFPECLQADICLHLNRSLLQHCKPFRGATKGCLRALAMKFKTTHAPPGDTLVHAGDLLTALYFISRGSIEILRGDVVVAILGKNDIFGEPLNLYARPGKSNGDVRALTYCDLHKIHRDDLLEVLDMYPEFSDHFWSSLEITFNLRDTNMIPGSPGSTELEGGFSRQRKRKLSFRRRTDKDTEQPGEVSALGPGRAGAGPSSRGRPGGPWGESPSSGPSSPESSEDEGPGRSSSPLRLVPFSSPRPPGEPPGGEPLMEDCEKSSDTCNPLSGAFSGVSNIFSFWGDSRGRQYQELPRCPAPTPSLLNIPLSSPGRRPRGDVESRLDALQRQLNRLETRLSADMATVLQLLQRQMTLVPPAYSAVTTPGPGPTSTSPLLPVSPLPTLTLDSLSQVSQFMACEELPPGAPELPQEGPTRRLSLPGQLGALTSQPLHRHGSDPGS

The test has as its target human ether-à-go-go-related gene (hERG) potassium channel (human, UniProt Q12809). As to the kind of experiment: primary screen, population patch clamp on CHO cells stably expressing hERG.
For `Cn1c(SCC(=O)c2ccccc2)nnc1-c1cccc(N)c1`, the “hERG current change (%, negative = inhibition) at 1uM” value turned out to be 6.25%.
Take `CSc1ccc(/C=N/NC(=O)c2cccc(O)c2)cc1`: the “hERG current change (%, negative = inhibition) at 1uM” value turned out to be 11.9%.
Under `COC(=O)C1CSC2c3ccccc3C(=O)N12` (stereo not shown) stands 10.3%.
Under `C=CCNC(=S)Nc1ccc(OC)c(S(=O)(=O)N2CCOCC2)c1` stands 11.6%.
Next, `OC[C@@H](O)[C@@H](O)[C@H](O)[C@@H](O)CO`: 7.41%.
Take `CCOC(=O)Cn1c(=O)sc2ccccc21`: the “hERG current change (%, negative = inhibition) at 1uM” value is -3.67%.
Regarding `COc1ccccc1-n1c(SCC(=O)N2CCc3ccccc32)nc2c(c1=O)SCC2`, the “hERG current change (%, negative = inhibition) at 1uM” value was found to be 10.4%.
Consider `CCOC(=O)Cc1csc(NC(=O)C(CC(C)C)NC(=O)C2CCCCC2)n1` (stereo not shown), for which the “hERG current change (%, negative = inhibition) at 1uM” value was 8.87%.
`Cc1cc(=O)oc2cc(NC(=O)c3cccc(S(=O)(=O)N(C)C)c3)ccc12`: the “hERG current change (%, negative = inhibition) at 1uM” value came out at 9.55%.
Under `CCc1nnc(NC(=O)CN2C(=O)NC3(CCCC3)C2=O)s1` stands 4.75%; under `O=C1CCC(C(=O)N(CCO)Cc2ccccc2)CN1CCCN1CCOCC1` (stereo not shown), 27.1%; under `Cc1ccc(N2C(=O)CC(C3CCCO3)C2=O)cc1` (stereo not shown), 15.9%.
Next, `CCOC(=O)N/N=C\c1ccc([N+](=O)[O-])o1`: 14.9%; `CCOC(=O)C(=O)Nc1ccccc1C#N`: 10.9%; `O=C(Nc1ncc(Cc2cccc(Cl)c2)s1)C1CCCO1` (stereo not shown): 5.15%.
Under `CCCc1nn(C)c(C(=O)Nc2ccc(C(C)(C)C)cc2)c1Cl` stands 14.7%; under `O=C(CNC(=O)c1ccco1)Nc1ccc(Br)cc1`, 13.7%; under `O=C(c1cnn2c(C(F)F)cc(-c3ccccc3)nc12)N1CCc2ccccc21`, 16%.
On to `Cc1n[nH]c(=S)n(/N=C/c2cccs2)c1=O`, for which the “hERG current change (%, negative = inhibition) at 1uM” value is 14.2%.
Next, `CC(C)CC(NC(N)=O)C(=O)OCC(=O)NC(=O)NC1CCCC1` (stereo not shown): 13.2%; `Cc1cccc(-c2nc3ccc(C(=O)NCCN4CCN(C)CC4)cc3nc2-c2cccc(C)c2)c1`: 16.5%.
Next, `O=C(c1cccnc1)N1CCN(C(=O)c2cccc(Cl)c2)CC1`: 16.3%; `CC(=O)c1ccc[n+](CC(=O)NC(C)c2ccccc2)c1.[Cl-]` (stereo not shown): 18.2%.
Next, `Cc1ccc(C(=O)CC2(O)C(=O)N(Cc3ccccc3)c3ccccc32)o1` (stereo not shown): -7.03%; `CCOC(=O)c1sc(N/N=C/c2cccc(C)c2)nc1C`: 6.98%.
Take `COC(=O)c1ccc(-c2ccco2)n1Cc1cc(C)ccc1C`: the “hERG current change (%, negative = inhibition) at 1uM” value was found to be 11.4%.
Next, `COC(=O)C1=C(N)Oc2c(c(=O)oc3ccccc23)C1c1cccnc1` (stereo not shown): -11%; `CCc1cccc2c(C(=O)C(NCCCOC)c3ccccc3)c[nH]c12` (stereo not shown): 8.24%.
Under `Cc1ccc(OCCNC(=O)CNC(=O)c2ccccc2Cl)cc1` stands 10.7%; under `Cc1ccc(C(=O)C=CNNC(=O)c2ccccc2)cc1`, 0.146%; under `CC(=O)CN1C(=O)NC(c2ccccc2)(c2ccccc2)C1=O`, 16.9%.
Under `CC(C)N(Cc1ccccc1)C(=O)COC(=O)c1ccc2ncsc2c1` stands 17%; under `O=C(NC1CCCC1)c1c(O)nc2sccn2c1=O`, 6.98%; under `Cc1ccccc1C(=O)N1CCN(c2ccc(NC(=O)c3ccco3)cc2)CC1`, 2.89%.
With `O=c1oc2ccccc2c(O)c1/C=C1\C=Nc2ccccc21`, the “hERG current change (%, negative = inhibition) at 1uM” value was 2.66%.
Next, `Cc1cc(C)c2c(NC(=S)Nc3ccccc3)n[nH]c2n1`: 9.64%; `C[C@@H]1NS(=O)(=O)[C@H]2C[C@@H]3C=C[C@]2(O3)[C@H]1OC(=O)c1ccccc1Br`: 11.5%; `CC(/C=C/c1ccccc1F)=N\NC(=O)c1ccc(Cl)cc1`: 9.99%.
Under `CCn1c(COc2ccc(C)cc2)nnc1SCc1ccc(C#N)cc1` stands -20%; under `O=C(Nc1c(F)cccc1F)C(c1ccccc1)c1ccccc1`, 12.4%; under `O=C(NNC(=O)[C@H]1CC=CC[C@H]1C(=O)O)c1ccc(Cl)cc1Cl`, 9.02%.
Under `Cc1ccccc1OCC(=O)N(CC(C)C)c1c(N)n(CC(C)C)c(=O)[nH]c1=O` stands -0.652%; under `CC(C)CCNC(=O)CCCOc1cc(=O)n(C)c2ccccc12`, 10.1%; under `Cl.Nc1cnn(Cc2ccc(F)cc2)c1`, 10.8%.
`CN1CCCC(OC(=O)c2ccc(S(=O)(=O)N(C)C)cc2)C1.Cl` (stereo not shown): the “hERG current change (%, negative = inhibition) at 1uM” value was determined as 12.9%.
Under `CC(C)c1onc(C(=O)NC(C)c2ccccc2)c1[N+](=O)[O-]` (stereo not shown) stands 7.24%; under `COC(=O)C1C(=O)C2=C(CC1C)NC(=O)CC2c1ccccc1` (stereo not shown), 7.21%; under `COc1ccc(-c2csc(N3C(=O)C4C5c6ccccc6C(c6ccccc65)C4C3=O)n2)cc1` (stereo not shown), 11.9%.
Under `N#Cc1ccccc1OCc1nnc(-c2ccccc2Br)o1` stands 15.8%; under `CCSc1ccccc1C(=O)N1CCCC1`, -6.75%; under `CN(C)C(CNC(=O)C1CCN(S(=O)(=O)c2ccc(Cl)cc2)CC1)c1ccccc1` (stereo not shown), 3.7%.
As to `Cc1c(OCC(=O)NCC(O)c2ccccc2)ccc2c3c(c(=O)oc12)CCC3` (stereo not shown), the “hERG current change (%, negative = inhibition) at 1uM” value worked out at 8.98%.
Next, `Cc1ccnc(Sc2nc3c(c(=O)[nH]c(=O)n3C)n2CCCc2ccccc2)n1`: 12.5%; `O=c1[nH]c2ccc(S(=O)(=O)Nc3ccc(Cl)cc3)cc2[nH]1`: 10.4%.
Under `O=C(O)C1Cn2c(nc3c(c2=O)C2(CCCC2)Cc2ccccc2-3)S1` (stereo not shown) stands 9.78%.
On to `Nn1c(COc2cccc(Br)c2)nnc1SCC(=O)NCC1CCCO1` (stereo not shown), for which the “hERG current change (%, negative = inhibition) at 1uM” value is on record as 8.55%.
Under `CN1CCN(c2ccc(C(CC(N)=O)NC(=O)c3ccccc3)cc2[N+](=O)[O-])CC1` (stereo not shown) stands 13%; under `COc1ccc(/C=C2\C(=O)NC(=S)N2C(=O)c2ccc(C)cc2)cc1`, 11%; under `CC(SC1=NCCN1S(=O)(=O)c1ccccc1)c1ccccc1` (stereo not shown), 4.21%.
Under `Cc1cnc(C(=O)OCC(=O)Nc2cc(-c3cc(C)c(C)cc3C)nn2-c2ccccc2)cn1` stands 10.6%; under `CC(=O)NCCn1c(SCC(=O)c2ccccc2)nc2ccccc2c1=O`, -6%; under `CCCCn1c(N)c(N(CCOC)C(=O)CSCc2ccc(Cl)c(Cl)c2)c(=O)[nH]c1=O`, 13%.
Under `CC1(C)CC(NC(=O)c2cc(Cl)ccc2Cl)CC(C)(C)N1` stands 10%; under `CC(C)C(NC(=O)c1ccccc1F)C(=O)NCc1ccc(F)cc1` (stereo not shown), 6.68%.
`O=C(NN=C1C2CC3CC1CC(Cl)(C3)C2)c1ccccn1`: the “hERG current change (%, negative = inhibition) at 1uM” value was found to be 9.36%.
Under `COc1ccc(OCC(=O)NC(=O)c2ccccc2)c([N+](=O)[O-])c1` stands -6.13%; under `CC1CCCCC1N1CCN(C(=O)c2cccc(F)c2)CC1.O=C(O)C(=O)O` (stereo not shown), -3.65%.
In the case of `Cc1c(NC(=O)COC(=O)c2ccc(O)cc2)c(=O)n(-c2ccccc2)n1C`, the “hERG current change (%, negative = inhibition) at 1uM” value came out at 16.4%.
Under `Cc1[nH]n(C(N)=S)c(=O)c1C(c1ccccc1)C(C#N)C#N` (stereo not shown) stands 17.3%.
Under `COc1cc(C(=O)N2CCCc3ccccc32)c([N+](=O)[O-])cc1OC` stands 13.2%; under `O=c1[nH]c(=O)n(C2CCCCC2)c(O)c1C=NCCCn1ccnc1`, 11.6%.
Under `CC(C)c1ccc(-c2c(NCCc3ccccc3)c(=O)c2=O)cc1` stands 18.3%; under `Cc1oc2cc3oc(=O)cc(C)c3cc2c1C`, 10%.
Consider `COc1ccc2c(=O)c(-c3nc(C)cs3)coc2c1`, for which the “hERG current change (%, negative = inhibition) at 1uM” value was 10.4%.
On to `O=C(O)c1ccccc1-c1ccccc1C(=O)NCCCO`, for which the “hERG current change (%, negative = inhibition) at 1uM” value is on record as 17.1%.
Under `CCO[C@@H]1OC(C(=O)NCc2ccccc2)=C[C@H](c2ccc(Br)cc2)[C@H]1CCCO` stands 13.8%.
Under `Cc1cccc(C(=O)OCC(=O)NCC2CCCO2)c1O` (stereo not shown) stands 8.36%; under `COc1cccc(OC)c1C(=O)N1CCN(S(=O)(=O)c2ccc(C)cc2)CC1`, 8.29%.
Next, `O=C1CC[C@@H](CN(Cc2ccccc2)Cc2cn[nH]c2-c2cc3ccccc3o2)N1`: 13.3%.
For `COC(=O)C1=C(C)NC(=O)NC1c1cn(-c2ccccc2)nc1-c1cccs1` (stereo not shown), the “hERG current change (%, negative = inhibition) at 1uM” value amounted to 8.39%.
Under `COc1ccc(CCn2c(-c3ccncc3)n[nH]c2=S)cc1OC` stands 11.5%.
Turning to `NC(=O)NCC1CC1`, the “hERG current change (%, negative = inhibition) at 1uM” value turned out to be 8.76%.
Regarding `Nc1cc(N)nc(SCC(=O)Nc2cc(S(=O)(=O)N3CCOCC3)ccc2Cl)n1`, the “hERG current change (%, negative = inhibition) at 1uM” value amounted to 13.2%.
As for `CCSc1nc(-c2ccccc2)nc2c1CCCC2`, the “hERG current change (%, negative = inhibition) at 1uM” value is 5.72%.
Next, `CCc1c(O)nc(SCc2ccccc2)n(C(C)CC)c1=O` (stereo not shown): 13.2%; `COC(=O)COc1ccc2c(c1)O/C(=C\c1cccc([N+](=O)[O-])c1)C2=O`: 1.61%; `Cc1ccc(NC(=O)Nc2cccs2)c(Cl)c1`: 7.98%.
Next, `COc1ccc(N2C(=O)N3[C@H](c4ccc(Cl)cc4)[C@@H]4C(=O)N(C5CCCCC5)C(=O)[C@@H]4[C@]3(Cc3ccc(Cl)cc3)C2=O)cc1`: 8.22%; `COc1ccc(OC)c(-c2csc(N(C)C(=O)Cc3ccccc3)n2)c1`: 8.65%.
Consider `COc1ccc(S(=O)(=O)NCc2ccccn2)cc1Br`, for which the “hERG current change (%, negative = inhibition) at 1uM” value is reported as 15.2%.
Next, `COc1ccc(CCNC(=O)c2ccc3c(c2)N(Cc2ccc(F)cc2)CCS3)cc1OC`: 9.51%.
